Reference: the supplement of paper PMC11876631
Substitutions are numbered along the chain they refer to. Names may count otherwise. ± gives the standard deviation of the averaged measurements. Laboratory Escherichia coli strains with one amino-acid change in an essential protein, pooled on minimal glucose agar with carbenicillin or gentamicin at twice the control MIC (plus kanamycin and chloramphenicol for the plasmids), 48 h. Fold change of barcode share against drug-free plates; higher = less susceptible. Active = above 20 in both replicates (the paper's putatively resistant). '<' = one read or none on drug, '>' = one read or none on a drug-free plate. Shares are relative, so most strains fall below 1 when a few take over. Listed are strains with at least 15 reads on both drug-free plates, and hits; most hits rest on fewer reference reads. Replicate rank correlation about 0.5. Edits are read from barcodes.

B1: asd L175W (protein)
chain: MKNVGFIGWRGMVGSVLMQRMVEERDFDAIRPVFFSTSQLGQAAPSFGGTTGTLQDAFDLEALKALDIIVTCQGGDYTNEIYPKLRESGWQGYWIDAASSLRMKDDAIIILDPVNQDVITDGLNNGIRTFVGGNCTVSLMLMSLGGLFANDLVDWVSVATYQAASGGGARHMREWLTQMGHLYGHVADELATPSSAILDIERKVTTLTRSGELPVDNFGVPLAGSLIPWIDKQLDNGQSREEWKGQAETNKILNTSSVIPVDGLCVRVGALRCHSQAFTIKLKKDVSIPTVEELLAAHNPWAKVVPNDREITMRELTPAAVTGTLTTPVGRLRKLNMGPEFLSAFTVGDQLLWGAAEPLRRMLRQLA
B2: mukE L54A (protein)
chain: MSSTNIEQVMPVKLAQALANPLFPALDSALRSGRHIGLDELDNHAFLMDFQEYAEEFYARYNVELIRAPEGFFYLRPRSTTLIPRSVLSELDMMVGKILCYLYLSPERLANEGIFTQQELYDELLTLADEAKLLKLVNNRSTGSDVDRQKLQEKVRSSLNRLRRLGMVWFMGHDSSKFRITESVFRFGADVRAGDDPREAQRRLIRDGEAMPIENHLQLNDETEENQPDSGEEE
B3: mukE L102Q (protein)
chain: B2 chain with A54L, L102Q
B4: mukE L102D (protein)
chain: B2 chain with A54L, L102D
B5: mukE L99A (protein)
chain: B2 chain with A54L, L99A
B6: mukE I98A (protein)
chain: B2 chain with A54L, I98A
B7: mukE L99Q (protein)
chain: B2 chain with A54L, L99Q
B8: mukE L102A (protein)
chain: B2 chain with A54L, L102A
B9: mukB V760Q (protein)
chain: MIERGKFRSLTLINWNGFFARTFDLDELVTTLSGGNGAGKSTTMAAFVTALIPDLTLLHFRNTTEAGATSGSRDKGLHGKLKAGVCYSMLDTINSRHQRVVVGVRLQQVAGRDRKVDIKPFAIQGLPMSVQPTQLVTETLNERQARVLPLNELKDKLEAMEGVQFKQFNSITDYHSLMFDLGIIARRLRSASDRSKFYRLIEASLYGGISSAITRSLRDYLLPENSGVRKAFQDMEAALRENRMTLEAIRVTQSDRDLFKHLISEATNYVAADYMRHANERRVHLDKALEFRRELHTSRQQLAAEQYKHVDMARELAEHNGAEGDLEADYQAASDHLNLVQTALRQQEKIERYEADLDELQIRLEEQNEVVAEAIERQQENEARAEAAELEVDELKSQLADYQQALDVQQTRAIQYNQAIAALNRAKELCHLPDLTADCAAEWLETFQAKELEATEKMLSLEQKMSMAQTAHSQFEQAYQLVVAINGPLARNEAWDVARELLREGVDQRHLAEQVQPLRMRLSELEQRLREQQEAERLLADFCKRQGKNFDIDELEALHQELEARIASLSDSVSNAREERMALRQEQEQLQSRIQSLMQRAPVWLAAQNSLNQLSEQCGEEFTSSQDVTEYLQQLLEREREAIVERDEVGARKNAVDEEIERLSQPGGSEDQRLNALAERFGGVLLSEIYDDVSLEDAPYFSALYGPSRHAIVVPDLSQVTEHLEGLTDCPEDLYLIEGDPQSFDDSVFSVDELEKAVVQKIADRQWRYSRFPEVPLFGRAARESRIESLHAEREVLSERFATLSFDVQKTQRLHQAFSRFIGSHLAVAFESDPEAEIRQLNSRRVELERALSNHENDNQQQRIQFEQAKEGVTALNRILPRLNLLADDSLADRVDEIRERLDEAQEAARFVQQFGNQLAKLEPIVSVLQSDPEQFEQLKEDYAYSQQMQRDARQQAFALTEVVQRRAHFSYSDSAEMLSGNSDLNEKLRERLEQAEAERTRAREALRGHAAQLSQYNQVLASLKSSYDTKKELLNDLQRELQDIGVRADSGAEERARIRRDELHAQLSNNRSRRNQLEKALTFCEAEMDNLTRKLRKLERDYFEMREQVVTAKAGWCAVMRMVKDNGVERRLHRRELAYLSADDLRSMSDKALGALRLAVADNEHLRDVLRMSEDPKRPERKIQFFVAVYQHLRERIRQDIIRTDDPVEAIEQMEIELSRLTEELTSREQKLAISSRSVANIIRKTIQREQNRIRMLNQGLQNVSFGQVNSVRLNVNVRETHAMLLDVLSEQHEQHQDLFNSNRLTFSEALAKLYQRLNPQIDMGQRTPQTIGEELLDYRNYLEMEVEVNRGSDGWLRAESGALSTGEAIGTGMSILVMVVQSWEDESRRLRGKDISPCRLLFLDEAARLDARSIATLFELCERLQMQLIIAAPENISPEKGTTYKLVRKVFQNTEHVHVVGLRGFAPQLPETLPGTDEAPSQAS
B10: mukB V760D (protein)
chain: B9 chain with Q760D

Target: Escherichia coli (laboratory strain)
Assay: barcode share on antibiotic plates over drug-free plates; higher = less susceptible
Details: antibiotic: carbenicillin; 2× MIC (3.1 µg/mL)
Description: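 A pool of E. coli strains, each edited to carry one amino-acid change in an essential protein, was grown for 48 h on minimal glucose agar with or without antibiotic; strain barcodes were sequenced; mean of two replicates.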

Row | Protein | fold change of barcode share
1 | B1 | 1.69 ± 1.4
2 | B2 | 0.311 ± 0.035
3 | B3 | 0.348 ± 0.091
4 | B4 | 0.344 ± 0.11
5 | B5 | 0.489 ± 0.44
6 | B6 | 0.219 ± 0.028
7 | B7 | 0.295 ± 0.11
8 | B8 | 0.954 ± 1.1
9 | B9 | 0.121 ± 0.046
10 | B10 | 0.282 ± 0.019

Same assay, conditions: antibiotic: gentamicin; 2× MIC (MIC 0.45 µg/mL)

Row | Protein | fold change of barcode share
11 | B1 | 0.00393 ± 0.0018
12 | B2 | < 0.0057
13 | B3 | < 0.0114
14 | B5 | < 0.0136
15 | B6 | < 0.0109
16 | B7 | < 0.0169
17 | B8 | < 0.00949
18 | B9 | < 0.0171
19 | B10 | < 0.0105
